This note sets out measurements from US20170281742A1 (published 2017).

Assay [1] has as its target T1, H3.3 K27M epitope, alanine at position 5 (A5) peptide on HLA-A*02:01 (human).
T1 peptide: RMSAASTGGV
The assay can be described thus: cytokine release.

In assay [2] the target is T2, H3.1 K27M (Mut H3.1); same residues as the A6 peptide of the alanine scan peptide on HLA-A*02:01 (human).
T2 peptide: RMSAPATGGV
The assay can be described thus: cytokine release.

Assay [3] has as its target T3, H3.3 K27M epitope, alanine at position 3 (A3) peptide on HLA-A*02:01 (human).
T3 peptide: RMAAPSTGGV
The assay can be described thus: cytokine release.

The target in assay [4] is T4, H3.3 wild type (non-mutant) peptide on HLA-A*02:01 (human).
T4 peptide: RKSAPSTGGV
The assay can be described thus: killing.

B1: H3.3.K27M-specific TCR from CTL clone 1H5 (TCR, V domains shown)
Valpha: AQKVTQAQTEISVVEKEDVTLDCVYETRDTTYYLFWYKQPPSGELVFLIRRNSFDEQNEISGRYSWNFQKSTSSFNFTITASQVVDSAVYFCALSEENDMRFGAGTRLTVKP
Vbeta: EAQVTQNPRYLITVTGKKLTVTCSQNMNHEYMSWYRQDPGLGLRQIYYSMNVEVTDKGDVPEGYKVSRKEKRNFPLILESPNPNQTSLYFCASGWGGPFYEQYFGPGTRLTVT
For the molecule B1, the binding result in assay [1] is listed as “recognises”; in assay [2] it was “no recognition”; in assay [3], “recognises”; in assay [4], “no recognition”.
